Several values for one entry are separate records, joined by “and”; a condition that tells them apart may be missing. Equal values may be shown once. The shares of active, inactive and inconclusive entries below differ from those in the screen. The call rests on the fitted dose curve; in most records, active means well fitted inhibition curve with a large enough effect in the signal ratio in the repeat runs (not every such curve was filed as active); inconclusive means weak or mixed curves; inactive means flat fitted curve, though single readings scatter; the % refers to the signal ratio. A potency beside an inconclusive call is a rough fit, not a confirmed value.
Experiment: qHTS assay to identify small molecule antagonists of the TGF-beta/Smad signaling pathway (AID 1346924)
Conditions: SBE-bla HEK293T, TGF-beta/Smad reporter, beta-lactamase ratio; activity, negative = inhibition: at 76.8 µM (top of the series) unless noted
Source text: U.S. Tox21 Program National Center for Advancing Translational Sciences [NCATS] NIH Chemical Genomics Center [NCGC] U.S. Environmental Protection Agency [EPA] National Institutes of Environmental Health Sciences [NIEHS] National Toxicology Program [NTP] U.S. Food and Drug Administration [FDA] Tox21 Assay Overview: Transforming growth factor beta (TGF-beta) superfamily consists of a large number of structurally related dimeric proteins that act as hormones or local mediators in regulating a wide range of biological functions. This superfamily includes TGF-betas themselves, the bone morphogenetic proteins (BMPs) and the activins. These ligands induce oligomerization of serine/threonine receptor kinases and phosphorylate the cytoplasmic signaling molecules of Smad protein family. CellSensor SBE-bla HEK 293T cell line (Life Technologies, Carlsbad, CA), responsive to TGF-beta was used to screen Tox21 10K compound library for identification of agonists/antagonists of the Smad signaling pathway. This cell line contains a beta-lactamase reporter gene under control of the Smad binding element (SBE) stably integrated into HEK 293T cells.
Tox21 Assay Protocol Summary: SBE-bla HEK 293T cells were dispensed at 4,000/well in 5 uL of assay medium into black wall/clear-bottom 1536-well plates using a Multidrop Combi (ThermoFisher Scientific, Waltham, MA) dispenser. After the assay plates were incubated at 37 C and 5% CO2 for an overnight, 23 nL of compounds dissolved in DMSO, positive controls or DMSO only was transferred to the assay plate by a Pintool station (Kalypsys, San Diego, CA). Compound transfer was followed by the addition of 1 uL of 0.25 ng/mL TGF-beta1 or assay buffer using two separate tips of Flying Reagent Dispenser (FRD, Aurora Discovery, San Diego, CA). The assay plates were incubated at 37 C and 5% CO2 for 5 hr. One uL of LiveBLAzer B/G FRET substrate (Life Technologies) was added using FRD and the plates were incubated at room temperature for 2 hr. Fluorescence intensity (405 nm excitation, 460 nm and 530 nm emissions) was measured using an Envision plate reader (PerkinElmer, Shelton, CT).
Potency means the concentration at half of the fitted maximal effect; tags describe the fitted curve by direction and shape or compound fluorescence and quenching.

| SMILES | Potency | activity, negative = inhibition |
| --- | --- | --- |
| Cc1cc(O)c(C(C)(C)C)cc1Sc1cc(C(C)(C)C)c(O)cc1C | inconclusive: 50.8 µM [cytotoxic] |  |
| O=C1c2ccccc2C(=O)N1SC1CCCCC1 |  | inconclusive: 1.75% and inconclusive: -1.49% |
| CCC1(c2cnc[nH]2)Cc2ccccc2C1 |  | inconclusive: -0.703% [at 35.3 µM] |
| CCCCOCCOCCOCc1cc2c(cc1CCC)OCO2 |  | inconclusive: -12.1% |
| CCCCC(CC)CN1CN(CC(CC)CCCC)CC(C)(N)C1 (stereo not given) |  | inconclusive: -0.557% [at 35.3 µM] |
| CN1CCN(CCCN2c3ccccc3Sc3ccc(Cl)cc32)CC1 |  | inconclusive: -2.45% [at 35.3 µM] |
| CC(O)(c1ccc(Cl)cc1)c1ccc(Cl)cc1 |  | inconclusive: -18.2% |
| CCCCCCCCCCCCCOP(=O)(O)O | inconclusive: 0.692 µM [falling, partial curve, poor fit] |  |
| CC=O | inconclusive: 25.7 µM [partial curve] |  |
| CC[C@]1(O)C[C@H]2CN(CCc3c([nH]c4ccccc34)[C@@](C(=O)OC)(c3cc4c(cc3OC)N(C=O)[C@H]3[C@@](O)(C(=O)OC)[C@H](OC(C)=O)[C@]5(CC)C=CCN6CC[C@]43[C@@H]65)C2)C1 | inconclusive: 5.35 µM [rising, partial curve, poor fit] |  |
| CCc1cc(Cc2cc(CC)c(N)c(CC)c2)cc(CC)c1N |  | inconclusive: 1.95% |
| CCOc1ccc([N+](=O)[O-])cc1 |  | inconclusive: -12.2% |
| CC(C)(c1cc(Br)c(OCCO)c(Br)c1)c1cc(Br)c(OCCO)c(Br)c1 |  | inconclusive: -21.9% |
| COc1ccc(CCN2CCC(Nc3nc4ccccc4n3Cc3ccc(F)cc3)CC2)cc1 | inconclusive: 11.2 µM [rising, partial curve, poor fit] |  |
| CCCCCCCOC(=O)c1ccc(O)cc1 |  | inconclusive: -19.2% |
| CN(C)CCCN1c2ccccc2Sc2ccc(Cl)cc21 |  | inconclusive: -16.1% [at 35.3 µM] |
| CCCCC(CC)CN=C(N)NC(N)=NCCCCCCN=C(N)NC(N)=NCC(CC)CCCC (stereo not given) | inconclusive: 23.9 µM [cytotoxic] |  |
| CC1=C(C(=O)OC(C)C)C(c2cccc([N+](=O)[O-])c2)C(C(=O)OC2CN(C(c3ccccc3)c3ccccc3)C2)=C(N)N1 (stereo not given) |  | inconclusive: -11.4% [at 35.3 µM] |
| O=C(NO)c1ccccc1 |  | inconclusive: 1.53% |

| SMILES | Potency | activity, negative = inhibition |
| --- | --- | --- |
| Nc1ccc(Nc2ccccc2)cc1 |  | inconclusive: 8.08% and inconclusive: 1.33% and inconclusive: 11.4% |
| CC[C@@]1(O)C(=O)OCc2c1cc1n(c2=O)Cc2c-1nc1ccccc1c2/C=N/OC(C)(C)C | inconclusive: 23.9 µM [fluorescent, partial curve] |  |
| C=C1C(CCl)(CCl)C2(Cl)C(Cl)C(Cl)C1(Cl)C2(Cl)Cl (stereo not given) |  | inconclusive: -28% |
| Clc1nc(C(Cl)(Cl)Cl)c(Cl)c(Cl)c1Cl | inconclusive: 43.6 µM [rising, partial curve] |  |
| O=P(O)(O)O |  | inconclusive: -15.6% |
| C/C=C/C=N/NC(=O)c1ccncc1 | inconclusive: 26.8 µM [rising, partial curve, poor fit] |  |
| CC(C)(c1ccccc1)c1ccc(Nc2ccc(C(C)(C)c3ccccc3)cc2)cc1 |  | inconclusive: -8.43% |
| Cc1cc(F)ccc1-c1cc(N2CC[C@@H](O)[C@H]2CO)ncc1N(C)C(=O)C(C)(C)c1cc(C(F)(F)F)cc(C(F)(F)F)c1 |  | inconclusive: -15.2% |
| S=P(N1CC1)(N1CC1)N1CC1 |  | inconclusive: -26.9% |
| Oc1c(Br)cc(Br)c2cccnc12 |  | inconclusive: 7.33% [at 35.3 µM] |
| CSc1ccc2c(c1)N(CCC1CCCCN1C)c1ccccc1S2 (stereo not given) | inconclusive: 61.4 µM [cytotoxic, single point] | inconclusive: -26.5% [at 35.3 µM] |
| O=c1[nH]sc2ccccc12 |  | inconclusive: -14.6% |
| CCC(C)(C)c1cc(O)c(C(C)(C)CC)cc1O |  | inconclusive: -4.19% |
| CN1CCC[C@@H]1CCO[C@](C)(c1ccccc1)c1ccc(Cl)cc1 |  | inconclusive: -24.4% [at 35.3 µM] |
| CCCCCCCCCCOCC(O)CN (stereo not given) |  | inconclusive: -21.6% [at 35.3 µM] |
| Cc1cc(OCCOCC[N+](C)(C)Cc2ccccc2)ccc1C(C)(C)CC(C)(C)C | inconclusive: 61.3 µM [cytotoxic, single point] |  |
| O=c1c(O)c(-c2ccc(O)cc2)oc2cc(O)cc(O)c12 | inconclusive: 11.7 µM [rising, full curve] | inconclusive: 19% |
| OCCN1CCN(CC/C=C2/c3ccccc3Sc3ccc(C(F)(F)F)cc32)CC1 |  | inconclusive: -25.8% [at 35.3 µM] |
| COc1cc([C@@H]2c3cc4c(cc3[C@@H](O[C@@H]3O[C@@H]5CO[C@@H](C)O[C@H]5[C@H](O)[C@H]3O)[C@H]3COC(=O)[C@H]23)OCO4)cc(OC)c1O |  | inconclusive: 16.6% |

Reference: PubChem BioAssay (Tox21)
